Measurements from patent publication US7572603B2, “Alpha-2 adrenergic receptor polymorphisms” (University of Cincinnati, priority 2000, dated 2009).
Like-named read-outs stand apart in the source and are kept apart here.

Assays:
Del322-325 alpha-2CAR [1] = biological target: T1, Del322-325 alpha-2CAR (Homo sapiens, UniProt P18825, DEL324-327/L239R/R446P/S401I); details: CHO line expressing 1520 ± 27.6 fmol/mg
T1 sequence (P18825 with tags, fused parts or gaps L239R/DEL324-327/S401I/R446P): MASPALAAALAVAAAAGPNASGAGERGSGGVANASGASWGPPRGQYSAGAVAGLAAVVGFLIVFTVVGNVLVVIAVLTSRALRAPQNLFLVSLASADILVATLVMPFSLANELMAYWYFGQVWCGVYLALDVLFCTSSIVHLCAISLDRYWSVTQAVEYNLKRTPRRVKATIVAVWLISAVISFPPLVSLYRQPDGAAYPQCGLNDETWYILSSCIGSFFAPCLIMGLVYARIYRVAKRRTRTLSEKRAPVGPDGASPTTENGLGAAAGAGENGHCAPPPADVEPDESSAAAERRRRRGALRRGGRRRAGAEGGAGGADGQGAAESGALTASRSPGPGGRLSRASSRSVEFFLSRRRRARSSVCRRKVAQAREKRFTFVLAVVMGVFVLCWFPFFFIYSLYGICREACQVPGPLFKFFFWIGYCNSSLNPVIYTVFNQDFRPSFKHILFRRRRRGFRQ

Del322-325 alpha-2CAR [2] = biological target: T1, Del322-325 alpha-2CAR; assay: biochemical
Del301-303 alpha-2BAR [3] = biological target: T2, Del301-303 alpha-2BAR (Homo sapiens, UniProt P18089, DEL307-309); assay: biochemical
T2 sequence (P18089 with tags, fused parts or gaps DEL307-309): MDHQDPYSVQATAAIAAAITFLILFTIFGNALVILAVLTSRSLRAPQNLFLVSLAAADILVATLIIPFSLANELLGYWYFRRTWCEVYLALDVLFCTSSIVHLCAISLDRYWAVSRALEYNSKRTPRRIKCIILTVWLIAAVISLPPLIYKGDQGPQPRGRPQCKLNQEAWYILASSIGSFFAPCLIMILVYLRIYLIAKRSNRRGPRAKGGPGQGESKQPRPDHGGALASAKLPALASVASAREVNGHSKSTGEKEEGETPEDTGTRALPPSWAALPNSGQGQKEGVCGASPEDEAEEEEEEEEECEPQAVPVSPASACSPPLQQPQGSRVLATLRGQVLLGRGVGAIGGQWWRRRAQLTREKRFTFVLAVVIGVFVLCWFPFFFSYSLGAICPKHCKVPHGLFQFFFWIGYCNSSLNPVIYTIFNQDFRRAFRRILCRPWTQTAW

Del301-303 alpha-2BAR [4] = biological target: T2, Del301-303 alpha-2BAR

SMILES	Max Inhibition (%) of adenylyl cyclase (Del322-325 alpha-2CAR [1]) [%]	EC50 (Del322-325 alpha-2CAR [1]; read-out: EC50 (nM) adenylyl cyclase inhibition) [nM]	EC50 (Del322-325 alpha-2CAR [2]) [nM]	EC50 (Del301-303 alpha-2BAR [3]) [nM]	Submax inhibition % Ctrl (Del301-303 alpha-2BAR [4]; at the EC50 of control membranes, cells pretreated with media alone) [%]	Max Inhibition of forskolin-stimulated adenylyl cyclase (Del301-303 alpha-2BAR [4]; receptor density 520±82 fmol/mg) [%]
Cc1cc(C(C)(C)C)c(O)c(C)c1CC1=NCCN1 [oxymetazoline]	12.8 ± 1.40					
N=C(N)N/N=C/c1c(Cl)cccc1Cl [guanabenz]	30.0 ± 1.98					
CCN1CCc2nc(N)oc2CC1 [BHT-933]	26.7 ± 2.40	4080 ± 2000				
NC[C@H](O)c1ccc(O)c(O)c1 [norepinephrine]	34.9 ± 0.887		224 ± 70.7	19.6 ± 5.5	17.1±3.0	23.4±2.2
